Results taken from paper PMC4336329 (PLoS ONE, 2015).
Screen size: about 310,000 compounds; about 14,000 (4.5%) showed an effect of 50% or more. The effect is printed as a negative number. The list shows a part of the results.

Molecular target: human ether-à-go-go-related gene (hERG) potassium channel (human, UniProt Q12809)
Assay: primary screen, population patch clamp on CHO cells stably expressing hERG
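Further: peak tail current of the secondary pulse compared with the same well before compound.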

Sequence of human ether-à-go-go-related gene (hERG) potassium channel (Q12809 whole entry, looked up): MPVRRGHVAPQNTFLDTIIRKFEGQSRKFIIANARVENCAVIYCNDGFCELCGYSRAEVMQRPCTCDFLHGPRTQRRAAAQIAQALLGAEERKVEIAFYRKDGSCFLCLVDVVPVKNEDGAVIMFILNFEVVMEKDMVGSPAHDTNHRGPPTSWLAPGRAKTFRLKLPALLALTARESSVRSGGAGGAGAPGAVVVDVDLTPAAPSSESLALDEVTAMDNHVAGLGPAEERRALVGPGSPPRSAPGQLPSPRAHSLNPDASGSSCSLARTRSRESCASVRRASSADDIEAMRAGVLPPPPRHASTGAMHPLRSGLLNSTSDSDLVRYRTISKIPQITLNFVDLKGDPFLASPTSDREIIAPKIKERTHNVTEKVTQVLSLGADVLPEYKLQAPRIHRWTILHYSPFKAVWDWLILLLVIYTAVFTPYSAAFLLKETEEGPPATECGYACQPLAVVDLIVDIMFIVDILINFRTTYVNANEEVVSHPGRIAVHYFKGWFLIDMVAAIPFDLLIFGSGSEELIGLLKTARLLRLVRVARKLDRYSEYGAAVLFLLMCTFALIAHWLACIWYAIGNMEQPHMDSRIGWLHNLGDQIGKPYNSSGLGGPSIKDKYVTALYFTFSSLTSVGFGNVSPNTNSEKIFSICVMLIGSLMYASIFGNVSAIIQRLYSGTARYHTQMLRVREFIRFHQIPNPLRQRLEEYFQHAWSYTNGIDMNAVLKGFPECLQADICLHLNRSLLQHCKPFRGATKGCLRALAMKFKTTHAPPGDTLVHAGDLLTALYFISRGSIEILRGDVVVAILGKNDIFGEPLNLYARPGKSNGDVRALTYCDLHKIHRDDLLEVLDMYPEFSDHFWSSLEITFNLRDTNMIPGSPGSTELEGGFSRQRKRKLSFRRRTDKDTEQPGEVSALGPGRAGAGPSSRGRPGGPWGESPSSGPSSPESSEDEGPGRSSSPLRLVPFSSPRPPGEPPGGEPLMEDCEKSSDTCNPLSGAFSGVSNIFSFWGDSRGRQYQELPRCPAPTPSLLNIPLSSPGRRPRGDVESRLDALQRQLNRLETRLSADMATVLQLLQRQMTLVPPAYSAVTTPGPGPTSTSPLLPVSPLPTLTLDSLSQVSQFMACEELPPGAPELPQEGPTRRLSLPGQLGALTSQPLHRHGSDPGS

SMILES | hERG current change (%, negative = inhibition) at 10uM [%]
CC1CCC(NC(=O)CNC(=O)c2ccc3ccccc3c2)CC1 (stereo not drawn) | 20.2
CCn1cc(C(=O)O)c(=O)c2cc(F)c(N3CCN(S(=O)(=O)c4ccc(Br)cc4)CC3)cc21 | -8.19
CC(C)Cc1cc(C(=O)N2CCN(C(c3ccccc3)c3ccccc3)CC2)no1 | 0.0803
Cc1ccc(C)c(OCc2nnc(SCC(=O)NCc3ccc4c(c3)OCO4)o2)c1 | -21.5
O=C(NCc1ccccc1)c1ccc(=O)oc1 | 0.549
NC(=O)CSc1oc(-c2ccco2)nc1S(=O)(=O)c1ccc(Cl)cc1 | -28.1
Cc1ccc(C(=O)OCC(=O)NCC2COc3ccccc3O2)cc1 (stereo not drawn) | 17
CCN1/C(=C2\C(=O)N(c3ccccc3)N=C2C)C=Cc2cc(C)ccc21 | -40
CC(=O)c1c(CSc2ccccc2)oc2ccc(O)c(CN(C)C)c12.Cl | -70.8
Cc1ccc(NC(=O)CN(C)S(=O)(=O)c2cccc3cccnc23)cc1F | -37
O=C(Nc1ccccc1C(F)(F)F)c1cc(-c2ccccc2O)on1 | 3.43
COc1ccc(OC)c(/C=N/NC(=O)C(=O)NCc2cccnc2)c1 | 16.2
COc1ccc(C(=O)NCC(=O)OCC(=O)Nc2c(C)n(C)n(-c3ccccc3)c2=O)cc1 | 6.68
CCNC(=O)C/C(C)=N/NC(=O)C(=O)Nc1ccc(CC)cc1 | -11.5
CC(C)CNC(=O)c1ccccc1NC(=O)Nc1ccccc1 | 7.14
O=C(CN1C(=O)C2CC=CCC2C1=O)Nc1nnc(SCc2c(Cl)cccc2Cl)s1 (stereo not drawn) | 6.1
O=c1ccc(C(F)(F)F)cn1Cc1cc(=O)n2ccsc2n1 | 35.4
CC(=O)C1C(c2ccc(C)cc2)c2c(noc2C)CC1(C)O (stereo not drawn) | 1.86
CC(=O)COC(=O)C1CCN(S(=O)(=O)c2cc([N+](=O)[O-])ccc2Cl)CC1 | -51.8
COCCNC(=O)CN(c1ccc(OC)c(OC)c1)S(=O)(=O)c1ccc(C)cc1 | -8.68
CCC(C)NC(=O)CN1C(=O)NC2(CCOc3ccccc32)C1=O (stereo not drawn) | -9.56
O=C(c1cc(-c2ccccc2Cl)nc2ccccc12)N1CCN(c2ccccc2O)CC1 | -22.6
CCC(=O)Nc1ccc2c(c1)nc(CCN1CCN(c3ccccn3)CC1)n2C | -18.3

SMILES | hERG current change (%, negative = inhibition) at 10uM [%]
CSC(=CC(=O)c1ccc(F)cc1)SC | -13.8
O=C(Nc1ccsc1C(=O)O)c1cccc(Oc2ccccc2)c1 | 10.8
COCCCn1c(SCc2nnc(-c3ccc(OC)c(OC)c3)o2)nc2ccccc2c1=O | -13.5
CC(C)[N+](C)(C)CC(O)CN(c1ccccc1)c1ccccc1.[I-] (stereo not drawn) | -43.6
Cc1nn(-c2ccccc2)c(C)c1CCC(=O)O | 6.51
O=C(O)c1cccc2c1C(=O)N(CC1CCCO1)C2 (stereo not drawn) | 24.2
O=C(O)COc1ccccc1/C=C1\SC(=S)N(NC(=O)c2ccccc2O)C1=O | 16.3
CN(C)C(=O)c1ccc2c(c1[N+](=O)[O-])C(=O)c1ccccc1C2=O | 15.1
CCOC(=O)c1nn(-c2ccc(C)cc2)cc1O | 15.3
CN(C)c1ccc(/C=C(\C#N)C(=O)OCC(=O)N(C)C2CCS(=O)(=O)C2)cc1 (stereo not drawn) | 0.323
Cc1nc2[nH]c(=O)c3c(n2n1)NC1=C(C(=O)CC(C)(C)C1)C3c1ccccc1 (stereo not drawn) | -22.7
CC1=C(C(=O)OCC2CCCO2)C(c2ccsc2)C2=C(CC(C)(C)CC2=O)N1 (stereo not drawn) | -19.5
CCOC(=O)c1ccc(N2C(=O)C3CC=CCC3C2=O)cc1 (stereo not drawn) | 8.31
CCc1ccc(S(=O)(=O)NC2CC(C)(C)NC(C)(C)C2)cc1 | 5.09
COc1ccc(CNC(=O)CCSCc2ccc(C)cc2)cc1 | -16.2
CSC1=NCCN1C(=O)c1ccc2c(c1)OCO2 | 1.2
CC(C)n1nnnc1SCC(=O)NNC(=O)C1CCCCC1 | 4.44
O=C1CC2(CCN(C(=O)c3ccccc3F)CC2)Oc2ccccc21 | -73.2
Cc1ccc(C)c(S(=O)(=O)Nc2ccc(C(=O)N3CCCCC3)cc2)c1 | 11
CC1=C(C(=O)Nc2ccccc2C)C(c2cccs2)NC(=S)N1 (stereo not drawn) | 23.2
COc1ccccc1/C=N/NC(=Nc1ccc(C)cc1)c1nc2ccccc2s1 | 20
CC1(C)Cc2ccccc2C(NNC(=O)c2ccccc2)=N1 | 14
